For part of its entries the source gives two or more results. This list holds those alone. The source may hold further records. Values given together are repeats in other runs, samples, wells, individuals or studies. Records with an inconclusive call do not appear. Rule for the calls, unless noted: active = hit-call score of the fitted dose curve at least 0.9, where 1 is the maximum; inconclusive = response in the unintended direction; inactive = score below 0.9. Some structures have more than one record in an assay (separate samples or runs), and their calls can disagree.
How the values were obtained:
[1] = target: bovine Estrogen Receptor (ER), ESR1 (gene 407238) (UniProt P49884); assay: NVS_NR_bER: NovaScreen (NVS) Nuclear Receptor Binding Assay for bovine Estrogen Receptor (ER) (AID 2283345);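 note: actives lower the bound radioligand count which means they displace the ER ligand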
UniProt P49884, sequence (P49884 whole entry, looked up): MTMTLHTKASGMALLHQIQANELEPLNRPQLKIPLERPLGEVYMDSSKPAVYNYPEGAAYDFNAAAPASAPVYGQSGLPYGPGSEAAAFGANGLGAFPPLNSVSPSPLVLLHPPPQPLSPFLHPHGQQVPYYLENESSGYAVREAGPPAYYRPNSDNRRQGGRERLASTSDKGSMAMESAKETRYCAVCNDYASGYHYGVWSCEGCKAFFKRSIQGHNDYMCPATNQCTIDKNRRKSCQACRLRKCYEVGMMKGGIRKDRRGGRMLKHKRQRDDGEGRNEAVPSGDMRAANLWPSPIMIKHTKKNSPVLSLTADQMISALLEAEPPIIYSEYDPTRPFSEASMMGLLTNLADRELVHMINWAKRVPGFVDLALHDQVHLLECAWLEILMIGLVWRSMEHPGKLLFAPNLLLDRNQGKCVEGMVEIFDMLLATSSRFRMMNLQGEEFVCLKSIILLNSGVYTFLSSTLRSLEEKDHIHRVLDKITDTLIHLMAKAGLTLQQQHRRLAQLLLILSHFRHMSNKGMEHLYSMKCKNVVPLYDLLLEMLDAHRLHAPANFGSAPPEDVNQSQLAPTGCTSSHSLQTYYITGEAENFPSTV
Procedure, shortened: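 Scintillation counting of displaced radioligand gave the readout; bovine uterine membrane extract supplied the receptor. Measured 18 h post-dose, normalized to DMSO baseline. Single 25 uM duplicate screen preceded concentration-response follow-up.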

[2] = ATG_ERE_CIS: Attagene CIS-FACTORIAL HepG2 Assay for Estrogen Response Element (ERE) (AID 2282940; active = hit-call score of the fitted dose curve at least 0.9, where 1 is the maximum; inactive = score below 0.9); conditions: HepG2 ERE cis-reporter, Attagene RNA transcript; actives raise or lower the signal
Procedure, shortened: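 After 24 h compound treatment, RNA from transfected HepG2 cells was reverse-transcribed, reporter cDNA PCR-amplified, FAM-labelled, HpaI-cut and resolved by capillary electrophoresis. ERE-driven cis reporter transcripts reflect endogenous factors; gain or loss scored against DMSO.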

[3] = target: rat Mineralocorticoid Receptor (MR), Nr3c2 (gene 25672) (UniProt P22199); assay: NVS_NR_rMR: NovaScreen (NVS) Nuclear Receptor Binding Assay for rat Mineralocorticoid Receptor (MR) (AID 2283355)
UniProt P22199, sequence (P22199 whole entry, looked up): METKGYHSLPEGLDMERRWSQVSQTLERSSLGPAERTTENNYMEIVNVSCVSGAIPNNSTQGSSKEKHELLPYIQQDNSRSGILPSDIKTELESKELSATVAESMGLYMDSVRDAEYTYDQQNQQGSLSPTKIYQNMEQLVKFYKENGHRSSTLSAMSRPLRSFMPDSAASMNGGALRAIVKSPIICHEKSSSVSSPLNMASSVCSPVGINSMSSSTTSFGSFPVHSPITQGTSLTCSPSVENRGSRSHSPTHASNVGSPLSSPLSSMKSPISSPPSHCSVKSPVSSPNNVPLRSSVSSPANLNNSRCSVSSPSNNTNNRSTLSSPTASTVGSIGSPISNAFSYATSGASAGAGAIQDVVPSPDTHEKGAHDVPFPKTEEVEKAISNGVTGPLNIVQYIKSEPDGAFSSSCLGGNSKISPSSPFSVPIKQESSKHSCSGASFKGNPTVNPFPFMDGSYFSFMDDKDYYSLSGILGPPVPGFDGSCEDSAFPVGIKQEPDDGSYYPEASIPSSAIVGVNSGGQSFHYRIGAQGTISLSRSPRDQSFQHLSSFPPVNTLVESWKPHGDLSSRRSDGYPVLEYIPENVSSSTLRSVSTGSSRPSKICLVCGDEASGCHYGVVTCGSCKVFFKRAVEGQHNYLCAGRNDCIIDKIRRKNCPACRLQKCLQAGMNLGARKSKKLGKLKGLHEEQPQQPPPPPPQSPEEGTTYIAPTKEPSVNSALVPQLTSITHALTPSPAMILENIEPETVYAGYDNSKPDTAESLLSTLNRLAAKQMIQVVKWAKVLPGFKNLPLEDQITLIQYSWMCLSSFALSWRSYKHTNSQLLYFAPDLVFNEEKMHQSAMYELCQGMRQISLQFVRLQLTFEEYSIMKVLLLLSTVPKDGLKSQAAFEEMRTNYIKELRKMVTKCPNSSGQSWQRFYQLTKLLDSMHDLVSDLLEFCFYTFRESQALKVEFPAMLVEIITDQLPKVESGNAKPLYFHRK
Procedure, shortened: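 Primary HTS ran in duplicate at a single 25 uM concentration, with concentration-series follow-up for actives. Receptor source: adrenalectomized rat brain supernatant, cell-free. Radioligand displacement read by scintillation at 24 h, relative to DMSO baseline.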

[4] = target: Glucocorticoid receptor (Homo sapiens) (UniProt P04150); assay: NVS_NR_hGR: NovaScreen (NVS) Nuclear Receptor Binding Assay for human Glucocorticoid Receptor (GR) (AID 2283363);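 note: activity is loss of specific radioligand binding signal relative to DMSO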
UniProt P04150, sequence (P04150 whole entry, looked up): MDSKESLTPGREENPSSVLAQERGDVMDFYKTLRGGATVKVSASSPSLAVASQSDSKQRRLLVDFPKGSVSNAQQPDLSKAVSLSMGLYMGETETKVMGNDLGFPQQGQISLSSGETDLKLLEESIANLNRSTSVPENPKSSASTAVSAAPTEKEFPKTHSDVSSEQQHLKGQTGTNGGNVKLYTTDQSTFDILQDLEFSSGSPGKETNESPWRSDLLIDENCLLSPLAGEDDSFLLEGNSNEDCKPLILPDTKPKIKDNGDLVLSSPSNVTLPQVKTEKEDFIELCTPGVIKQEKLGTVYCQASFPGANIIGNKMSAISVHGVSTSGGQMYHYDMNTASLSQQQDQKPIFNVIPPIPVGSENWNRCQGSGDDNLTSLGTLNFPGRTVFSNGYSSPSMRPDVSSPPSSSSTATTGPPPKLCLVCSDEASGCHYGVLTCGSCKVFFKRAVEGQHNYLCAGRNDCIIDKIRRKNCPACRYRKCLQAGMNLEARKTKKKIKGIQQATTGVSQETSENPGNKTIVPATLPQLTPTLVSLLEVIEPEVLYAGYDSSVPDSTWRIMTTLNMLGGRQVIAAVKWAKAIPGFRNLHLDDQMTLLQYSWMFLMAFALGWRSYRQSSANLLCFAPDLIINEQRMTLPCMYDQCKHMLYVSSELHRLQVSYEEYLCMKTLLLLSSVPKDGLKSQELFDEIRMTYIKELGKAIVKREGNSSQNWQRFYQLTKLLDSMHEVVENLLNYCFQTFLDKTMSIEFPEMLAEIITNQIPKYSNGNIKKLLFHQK
Procedure, shortened: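 Compounds first tested in duplicate at 25 uM, actives followed up in concentration series. Binding to extracted GR protein measured as competitive radioligand displacement, filter scintillation read 16 h post-dosing, normalised to DMSO.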

[5] = target: Estrogen receptor (Homo sapiens) (UniProt P03372); assay: ATG_ERa_TRANS: Attagene TRANS-FACTORIAL HepG2 Assay for human Estrogen Receptor alpha (ERa) (AID 2282970); conditions: HepG2 Attagene TRANS ERa GAL4 reporter, mRNA
UniProt P03372, sequence (P03372 whole entry, looked up, the tested form may be a part): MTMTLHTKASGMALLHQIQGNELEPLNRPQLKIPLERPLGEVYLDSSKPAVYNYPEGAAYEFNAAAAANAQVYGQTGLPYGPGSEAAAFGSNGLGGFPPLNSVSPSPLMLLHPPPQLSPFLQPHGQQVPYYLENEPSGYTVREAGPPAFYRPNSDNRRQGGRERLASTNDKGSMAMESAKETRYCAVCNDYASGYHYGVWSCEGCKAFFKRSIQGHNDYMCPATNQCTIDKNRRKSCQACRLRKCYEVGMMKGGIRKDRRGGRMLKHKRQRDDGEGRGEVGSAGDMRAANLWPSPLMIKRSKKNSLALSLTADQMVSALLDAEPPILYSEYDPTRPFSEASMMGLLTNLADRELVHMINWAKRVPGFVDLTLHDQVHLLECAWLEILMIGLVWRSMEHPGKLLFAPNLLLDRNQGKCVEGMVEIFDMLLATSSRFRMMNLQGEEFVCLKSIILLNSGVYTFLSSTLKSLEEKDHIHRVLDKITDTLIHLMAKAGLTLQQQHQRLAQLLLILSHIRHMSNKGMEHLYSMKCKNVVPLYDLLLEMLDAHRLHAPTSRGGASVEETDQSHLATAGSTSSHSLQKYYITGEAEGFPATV
Procedure, shortened: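 Gal4-fusion ERa transactivation, measured as reporter transcript level in transiently transfected HepG2 cells. Exposure 24 h; RT-PCR plus capillary electrophoresis with fluorescence detection.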

[6] = target: Estrogen receptor (Homo sapiens) (UniProt P03372); assay: NVS_NR_hER: NovaScreen (NVS) Nuclear Receptor Binding Assay for human Estrogen Receptor (ER) (AID 2283348)
Procedure, shortened: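 Cell-free MCF7-derived ER preparation, specific radioligand displaced by test compound, read by scintillation counting 18 h post-dosing. Duplicate single-point 25 uM screen, then concentration-response confirmation; DMSO baseline.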

[7] = ACEA_ER_80hr: ACEA Biosciences xCELLigence Real-Time Cell Analysis on Estrogen Receptor Agonism for Proliferation (AID 2282667); conditions: T47D proliferation, impedance (xCELLigence), 80 h
Procedure, shortened: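 T-47D cells monitored by electrical impedance (xCELLigence) with compound present throughout; 80 h timepoint, positive-direction fitting versus DMSO. Eight-point 1:4 dilutions from 100 uM final, duplicate plates.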

[8] = ATG_E_Box_CIS: Attagene CIS-FACTORIAL HepG2 Assay for human Enhancer Box (E-box) (AID 2282936; active = hit-call score of the fitted dose curve at least 0.9, where 1 is the maximum; inactive = score below 0.9); conditions: HepG2 E-box cis-reporter transcription, actives raise or lower the signal
Procedure, shortened: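 E-box-driven reporter transcripts measured in transiently transfected HepG2 after 24 h exposure: RNA reverse-transcribed, PCR-amplified, fluorescently labelled, digested and resolved by capillary electrophoresis. Gain or loss relative to DMSO.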

O=C(c1ccc(O)cc1O)c1ccc(O)cc1O
AC50 [1]: active: 800, 334, 224, 613 nM [separate samples]

C[C@]12C[C@H](O)[C@H]3[C@@H](CCC4=CC(=O)CC[C@@]43C)[C@@H]1CC[C@@H]2C(=O)CO
AC50 [2]: active: 76.5, 41.7, 41.2, 6.18 µM [separate samples]
AC50 [3]: active: 4.16, 18, 2.29, 4.01 nM [separate samples]
AC50 [4]: active: 16.6, 5.05, 3.3, 5.62 nM [separate samples]

C[C@]12CC[C@@H]3c4ccc(O)cc4C[C@@H](CCCCCCCCCS(=O)CCCC(F)(F)C(F)(F)F)[C@H]3[C@@H]1CC[C@@H]2O (stereo partly specified)
AC50 [1]: active: 31 nM, 1.02 µM, 369 nM, 6.43 µM [separate samples]

C#C[C@]1(O)CC[C@H]2[C@@H]3CCC4=CC(=O)CC[C@@H]4[C@H]3CC[C@@]21CC
AC50 [2]: active: 148, 274, 189, 351, 554 nM [separate samples]
AC50 [5]: active: 127, 88.6, 393, 198, 81.1 nM [separate samples]
AC50 [6]: active: 3.24 µM, 877 nM, 11.8 nM, 2.11 µM, 1.17 µM [separate samples]
AC50 [4]: active: 24.5, 10.2, 11.5, 7.92 nM [separate samples]

CC(=O)[C@H]1CC[C@H]2[C@@H]3CCC4=CC(=O)CC[C@]4(C)[C@H]3CC[C@]12C
AC50 [7]: active: 2.71 nM, 0.68 nM, 140 nM, 3.45 µM [separate samples]
AC50 [8]: active: 12.7, 13.6, 19.3, 100 µM [separate samples]

Source: PubChem BioAssay (EPA / NIEHS)
